B1: Caulobacter ParB omega fusion; a variant is named by its letters at X, in order, B8GW30 (parent)
chain: MESVVVGEPGMSEGRRGLGRGLSALLGEVDAAPAQAPGEQLGGSREAPIEILQRNPDQPRRTFREEDLEDLSNSIREKGVLQPILVRPSPDTAGEYQIVAGERAWRAAQRAGLKTVPIMVRELDDLAVLEIGIIENVQRADLNVLEEALSYKVLMEKFERTQENIAQTIGKSXSHVANXMRLLXLPDEVQSYLVSGELTAXHARAIAAAADPVALAKQIIEGGLSVRETEALARKAPNLSAGKSKGGRPPRVKDTDTQALESDLSSVLGLDVSIDHRGSTGTLTITYATLEQLDDLCNRLTRGI

These results are taken from a collection of fitness landscapes (doi:10.1016/j.celrep.2020.107928).

Over roughly 81,000 sequences, “one-hybrid fitness for binding NBS DNA” has its median near -0.1; the highest 2% begin near 0.36. The list shows a part of the results.

The test covers variants of B1. Put plainly: one-hybrid fitness for binding NBS DNA (the Noc-binding site; scaled: cognate 1, non-cognate 0); higher = stronger binding. As to conditions: with NBS DNA site. The method, boiled down:
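On M9-minus-histidine containing 0.1 mM IPTG and 5 mM 3-AT, E. coli USO cells with a HIS3 reporter, site 19 bp from the promoter, grew 48 hours at 37°C to select Caulobacter ParB libraries randomised at four specificity codons. Plasmids from before and after were Illumina-sequenced, with three replicate libraries pooled and variants under 10 reads left out. Fitness is the log change in variant-to-wild-type read ratio, rescaled against cognate and non-cognate.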
With HRPS, the “one-hybrid fitness for binding NBS DNA” value was at most 0.2.

Take FPER: the “one-hybrid fitness for binding NBS DNA” value is at most 0.2.

NPLL: the “one-hybrid fitness for binding NBS DNA” value was at most 0.2.

As to KHST, the “one-hybrid fitness for binding NBS DNA” value was at most 0.2.

Turning to QHCM, the “one-hybrid fitness for binding NBS DNA” value is at most 0.2.

For LMEL, the “one-hybrid fitness for binding NBS DNA” value was at most 0.2.

For MNIR, the “one-hybrid fitness for binding NBS DNA” value is at most 0.2.

In the case of RHQA, the “one-hybrid fitness for binding NBS DNA” value is at most 0.2.

For the variant MAAR, the “one-hybrid fitness for binding NBS DNA” value is at most 0.2.

Take PQSW: the “one-hybrid fitness for binding NBS DNA” value was at most 0.2.

As for DSVL, the “one-hybrid fitness for binding NBS DNA” value is at most 0.2.

In the case of SGSR, the “one-hybrid fitness for binding NBS DNA” value was at most 0.2.

YAKL: the “one-hybrid fitness for binding NBS DNA” value was at most 0.2.

With MRAI, the “one-hybrid fitness for binding NBS DNA” value was at most 0.2.

In the case of SVAD, the “one-hybrid fitness for binding NBS DNA” value was at most 0.2.

With KSCG, the “one-hybrid fitness for binding NBS DNA” value is at most 0.2.

Turning to QMGG, the “one-hybrid fitness for binding NBS DNA” value was at most 0.2.

In the case of PITT, the “one-hybrid fitness for binding NBS DNA” value is at most 0.2.

As for HRGK, the “one-hybrid fitness for binding NBS DNA” value was at most 0.2.

Regarding RSDS, the “one-hybrid fitness for binding NBS DNA” value is at most 0.2.

Regarding YYDG, the “one-hybrid fitness for binding NBS DNA” value was at most 0.2.

Turning to SFWL, the “one-hybrid fitness for binding NBS DNA” value was at most 0.2.

For the variant VIFR, the “one-hybrid fitness for binding NBS DNA” value is at most 0.2.

Turning to CKDY, the “one-hybrid fitness for binding NBS DNA” value was at most 0.2.

As for LAKG, the “one-hybrid fitness for binding NBS DNA” value was at most 0.2.

YIQR: the “one-hybrid fitness for binding NBS DNA” value was at most 0.2.

Take WISA: the “one-hybrid fitness for binding NBS DNA” value is at most 0.2.

Take VDMP: the “one-hybrid fitness for binding NBS DNA” value is at most 0.2.

In the case of QPRS, the “one-hybrid fitness for binding NBS DNA” value is at most 0.2.

With QCLY, the “one-hybrid fitness for binding NBS DNA” value is at most 0.2.

Consider TYSK, for which the “one-hybrid fitness for binding NBS DNA” value was at most 0.2.

For the variant TSPY, the “one-hybrid fitness for binding NBS DNA” value is at most 0.2.

Turning to VSVT, the “one-hybrid fitness for binding NBS DNA” value was at most 0.2.

As for LHPP, the “one-hybrid fitness for binding NBS DNA” value is at most 0.2.

QCWG: the “one-hybrid fitness for binding NBS DNA” value was at most 0.2.

Turning to KYEE, the “one-hybrid fitness for binding NBS DNA” value was at most 0.2.

Take HTTM: the “one-hybrid fitness for binding NBS DNA” value is at most 0.2.

Turning to KMTT, the “one-hybrid fitness for binding NBS DNA” value is at most 0.2.

On to VAMY, for which the “one-hybrid fitness for binding NBS DNA” value was at most 0.2.

For the variant DAYG, the “one-hybrid fitness for binding NBS DNA” value is at most 0.2.

For the variant YMDY, the “one-hybrid fitness for binding NBS DNA” value was at most 0.2.

With QVWN, the “one-hybrid fitness for binding NBS DNA” value is at most 0.2.

On to LIHT, for which the “one-hybrid fitness for binding NBS DNA” value was at most 0.2.

In the case of SGCT, the “one-hybrid fitness for binding NBS DNA” value was at most 0.2.

On to AYLN, for which the “one-hybrid fitness for binding NBS DNA” value was at most 0.2.

With PLTV, the “one-hybrid fitness for binding NBS DNA” value was at most 0.2.

For the variant CGNY, the “one-hybrid fitness for binding NBS DNA” value was at most 0.2.

Consider IQWG, for which the “one-hybrid fitness for binding NBS DNA” value is at most 0.2.

For the variant QHGG, the “one-hybrid fitness for binding NBS DNA” value is at most 0.2.

With PHGN, the “one-hybrid fitness for binding NBS DNA” value is at most 0.2.

With TERT, the “one-hybrid fitness for binding NBS DNA” value is at most 0.2.

Consider NPDT, for which the “one-hybrid fitness for binding NBS DNA” value was at most 0.2.

As to GHMC, the “one-hybrid fitness for binding NBS DNA” value is at most 0.2.

As to GRDF, the “one-hybrid fitness for binding NBS DNA” value was at most 0.2.

For the variant AMHL, the “one-hybrid fitness for binding NBS DNA” value is at most 0.2.

Regarding EKMG, the “one-hybrid fitness for binding NBS DNA” value is at most 0.2.

For VTAY, the “one-hybrid fitness for binding NBS DNA” value is at most 0.2.

For SCHV, the “one-hybrid fitness for binding NBS DNA” value was at most 0.2.

In the case of TPMS, the “one-hybrid fitness for binding NBS DNA” value was at most 0.2.

HSAT: the “one-hybrid fitness for binding NBS DNA” value is at most 0.2.

Consider GNAD, for which the “one-hybrid fitness for binding NBS DNA” value was at most 0.2.

With SGLS, the “one-hybrid fitness for binding NBS DNA” value was at most 0.2.

WSAM: the “one-hybrid fitness for binding NBS DNA” value is at most 0.2.

Take PSTT: the “one-hybrid fitness for binding NBS DNA” value is at most 0.2.

On to CSYG, for which the “one-hybrid fitness for binding NBS DNA” value was at most 0.2.

In the case of PTWM, the “one-hybrid fitness for binding NBS DNA” value was at most 0.2.

Turning to MIHC, the “one-hybrid fitness for binding NBS DNA” value is at most 0.2.

Regarding NRTY, the “one-hybrid fitness for binding NBS DNA” value was at most 0.2.

Consider TQAW, for which the “one-hybrid fitness for binding NBS DNA” value was at most 0.2.

Regarding HMWR, the “one-hybrid fitness for binding NBS DNA” value is at most 0.2.

KSFG: the “one-hybrid fitness for binding NBS DNA” value was at most 0.2.

As to AFLI, the “one-hybrid fitness for binding NBS DNA” value is at most 0.2.

As to CQTM, the “one-hybrid fitness for binding NBS DNA” value is at most 0.2.

For AFFR, the “one-hybrid fitness for binding NBS DNA” value was at most 0.2.

In the case of RRDP, the “one-hybrid fitness for binding NBS DNA” value was at most 0.2.

Consider KGNG, for which the “one-hybrid fitness for binding NBS DNA” value is at most 0.2.

With ELKG, the “one-hybrid fitness for binding NBS DNA” value was at most 0.2.

On to PKLS, for which the “one-hybrid fitness for binding NBS DNA” value is at most 0.2.

Take LTEE: the “one-hybrid fitness for binding NBS DNA” value is at most 0.2.

For EAQT, the “one-hybrid fitness for binding NBS DNA” value was at most 0.2.

On to PDES, for which the “one-hybrid fitness for binding NBS DNA” value is at most 0.2.

Consider WYTL, for which the “one-hybrid fitness for binding NBS DNA” value was at most 0.2.

For HEKR, the “one-hybrid fitness for binding NBS DNA” value was at most 0.2.

QQQV: the “one-hybrid fitness for binding NBS DNA” value was at most 0.2.

With SKNK, the “one-hybrid fitness for binding NBS DNA” value was at most 0.2.

On to QPYV, for which the “one-hybrid fitness for binding NBS DNA” value is at most 0.2.

With YCND, the “one-hybrid fitness for binding NBS DNA” value is at most 0.2.

PLAT: the “one-hybrid fitness for binding NBS DNA” value is at most 0.2.

Consider DCGR, for which the “one-hybrid fitness for binding NBS DNA” value is at most 0.2.

With KDMD, the “one-hybrid fitness for binding NBS DNA” value is at most 0.2.

For the variant GGPL, the “one-hybrid fitness for binding NBS DNA” value is at most 0.2.

As to SHYT, the “one-hybrid fitness for binding NBS DNA” value is at most 0.2.

Regarding NKHL, the “one-hybrid fitness for binding NBS DNA” value is at most 0.2.

MKRC: the “one-hybrid fitness for binding NBS DNA” value was at most 0.2.

Regarding DDNM, the “one-hybrid fitness for binding NBS DNA” value is at most 0.2.

As to TKWD, the “one-hybrid fitness for binding NBS DNA” value is at most 0.2.

As to PQYT, the “one-hybrid fitness for binding NBS DNA” value is at most 0.2.

Consider KVNT, for which the “one-hybrid fitness for binding NBS DNA” value was at most 0.2.

Consider VQIV, for which the “one-hybrid fitness for binding NBS DNA” value was at most 0.2.

SDGE: the “one-hybrid fitness for binding NBS DNA” value is at most 0.2.

Take LVKT: the “one-hybrid fitness for binding NBS DNA” value is at most 0.2.

As to DNNW, the “one-hybrid fitness for binding NBS DNA” value was at most 0.2.

For the variant LDCV, the “one-hybrid fitness for binding NBS DNA” value is at most 0.2.

As for YHVG, the “one-hybrid fitness for binding NBS DNA” value was at most 0.2.

Take KGNT: the “one-hybrid fitness for binding NBS DNA” value is at most 0.2.

Consider TKWA, for which the “one-hybrid fitness for binding NBS DNA” value was at most 0.2.

Regarding VSSD, the “one-hybrid fitness for binding NBS DNA” value is at most 0.2.

RTHT: the “one-hybrid fitness for binding NBS DNA” value worked out at 0.57.

Turning to LWSV, the “one-hybrid fitness for binding NBS DNA” value is at most 0.2.

Consider QPPC, for which the “one-hybrid fitness for binding NBS DNA” value was at most 0.2.

Take YPSW: the “one-hybrid fitness for binding NBS DNA” value was at most 0.2.

Take DMKG: the “one-hybrid fitness for binding NBS DNA” value was at most 0.2.

KQKR: the “one-hybrid fitness for binding NBS DNA” value is 0.425.

SPSS: the “one-hybrid fitness for binding NBS DNA” value was at most 0.2.

Consider MCIR, for which the “one-hybrid fitness for binding NBS DNA” value is at most 0.2.

On to SANK, for which the “one-hybrid fitness for binding NBS DNA” value was at most 0.2.

As for PRQV, the “one-hybrid fitness for binding NBS DNA” value is at most 0.2.

KKFD: the “one-hybrid fitness for binding NBS DNA” value was at most 0.2.

Regarding NSVS, the “one-hybrid fitness for binding NBS DNA” value was at most 0.2.

In the case of CQMS, the “one-hybrid fitness for binding NBS DNA” value is at most 0.2.

Consider KETM, for which the “one-hybrid fitness for binding NBS DNA” value is at most 0.2.

Turning to LYQS, the “one-hybrid fitness for binding NBS DNA” value is at most 0.2.

ILAI: the “one-hybrid fitness for binding NBS DNA” value was at most 0.2.

As for GIPT, the “one-hybrid fitness for binding NBS DNA” value is at most 0.2.

With RQIF, the “one-hybrid fitness for binding NBS DNA” value was at most 0.2.

For VPGG, the “one-hybrid fitness for binding NBS DNA” value was at most 0.2.

On to EMTR, for which the “one-hybrid fitness for binding NBS DNA” value was at most 0.2.

With ATTT, the “one-hybrid fitness for binding NBS DNA” value was at most 0.2.

For the variant QFKV, the “one-hybrid fitness for binding NBS DNA” value was at most 0.2.

For TAML, the “one-hybrid fitness for binding NBS DNA” value was at most 0.2.

With ENQG, the “one-hybrid fitness for binding NBS DNA” value is at most 0.2.

In the case of SDNC, the “one-hybrid fitness for binding NBS DNA” value is at most 0.2.

For FKMG, the “one-hybrid fitness for binding NBS DNA” value is at most 0.2.

Turning to MHTL, the “one-hybrid fitness for binding NBS DNA” value is at most 0.2.

In the case of VMPE, the “one-hybrid fitness for binding NBS DNA” value is at most 0.2.

With ADRH, the “one-hybrid fitness for binding NBS DNA” value is at most 0.2.

For QKRQ, the “one-hybrid fitness for binding NBS DNA” value was found to be 0.415.

Take DEQS: the “one-hybrid fitness for binding NBS DNA” value was at most 0.2.

In the case of MALC, the “one-hybrid fitness for binding NBS DNA” value was at most 0.2.

With MVNR, the “one-hybrid fitness for binding NBS DNA” value is at most 0.2.

On to RSHM, for which the “one-hybrid fitness for binding NBS DNA” value is at most 0.2.

Regarding NGLE, the “one-hybrid fitness for binding NBS DNA” value was at most 0.2.

Turning to WVER, the “one-hybrid fitness for binding NBS DNA” value was at most 0.2.

WPAG: the “one-hybrid fitness for binding NBS DNA” value is at most 0.2.

Turning to MKKL, the “one-hybrid fitness for binding NBS DNA” value was at most 0.2.

DPAC: the “one-hybrid fitness for binding NBS DNA” value is at most 0.2.

For the variant TNER, the “one-hybrid fitness for binding NBS DNA” value is at most 0.2.

For the variant HALS, the “one-hybrid fitness for binding NBS DNA” value was at most 0.2.

WCTM: the “one-hybrid fitness for binding NBS DNA” value was at most 0.2.

Regarding TSTI, the “one-hybrid fitness for binding NBS DNA” value was at most 0.2.

Regarding SRLN, the “one-hybrid fitness for binding NBS DNA” value was at most 0.2.

For the variant PSTF, the “one-hybrid fitness for binding NBS DNA” value is at most 0.2.

For RQIH, the “one-hybrid fitness for binding NBS DNA” value was at most 0.2.
